This note sets out measurements from the antibiotic and cytotoxicity screens of Wong et al. (2023).

Each structure is given as a SMILES string. Some of the results follow.

In this test the test system is HSkMC (human skeletal muscle cells). As to the kind of experiment: cytotoxicity call (relative viability < 0.9). Particulars: 10 µM.
Regarding `C[C@H]1CN([C@H]2C[C@@H](O)[C@@H](CO)O2)C(=O)NC1=O`, the cytotoxicity call is “inactive”.
To `Cc1noc(C)c1S(=O)(=O)Nc1ccc2c(c1)C(=O)N([C@H](C)CO)C[C@@H](C)[C@H](CN(C)S(=O)(=O)c1ccc(F)cc1)O2` belongs “inactive”; to `C[C@H](CO)N1C[C@H](C)[C@H](CN(C)S(C)(=O)=O)Oc2ncc(C#Cc3cccnc3)cc2C1=O`, “inactive”.
To `C[C@@H]1CCCCO[C@H](CN(C)Cc2ccc(Cl)c(Cl)c2)[C@@H](C)CN([C@@H](C)CO)C(=O)c2cc(NC(=O)Nc3ccc4c(c3)OCO4)ccc2O1` belongs “inactive”.
To `Cc1ccc(S[C@]2(C(=O)NC3CC3)CC(=O)N(Cc3cc(C(F)(F)F)cc(C(F)(F)F)c3)[C@@H]2c2ccc(CO)cc2I)cc1` belongs “inactive”.
`Cc1noc(C)c1S(=O)(=O)N(C)C[C@@H]1Oc2ccc(NC(=O)Nc3ccccc3)cc2CC(=O)N([C@@H](C)CO)C[C@@H]1C`: the cytotoxicity call was “inactive”.
In the case of `C[C@H]1COC(=O)[C@@H](CC(=O)OC(C)(C)C)CC=CC[C@@H](CC(=O)N[C@@H](CO)Cc2ccccc2)C(=O)N1`, the cytotoxicity call is “inactive”.
To `Cc1ccc(S[C@]2(C(=O)NC(C)C)CC(=O)N(C3CCCCC3)[C@@H]2c2ccc(CO)cc2I)cc1` belongs “inactive”; to `C[C@@H]1CN([C@@H](C)CO)C(=O)Cc2cc(NC(=O)C3CC3)ccc2O[C@H]1CN(C)S(=O)(=O)c1ccccc1`, “inactive”.
To `CC(=O)OC1CC2CCC1(C)C2(C)C` (configuration not stated) belongs “inactive”; to `CCN(CC)C(=O)[C@@H]1C[C@@H](N)CN1S(=O)(=O)N1CCCCCC1`, “inactive”.
In the case of `COc1ccc2c(c1)OC1COc3cc(OC)c(OC)cc3C1C2=O` (configuration not stated), the cytotoxicity call is “inactive”.
